In all, about 340,000 compounds went through this assay and about 3,300 (0.97%) were called active. This list was built around the results that the source calls inconclusive (neither active nor inactive); the mix of calls is not that of the screen.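 How the source made its calls: active means mean activation above about 17%, with every replicate also reaching it (limit read from the data, passing the limit was not always enough); inconclusive means only one of the two conditions met; inactive means the rest.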
The molecules below were run against Protein FosB (Mus musculus) (UniProt P13346) (assay: enhancers of mouse delta FosB DNA binding – biochemical, fluorescence polarization, TAMRA-CDK5 oligo, single point, primary screen (AID 493131;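 further: fluorescence polarization rise as delta FosB binds a TAMRA Cdk5 AP-1 oligo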)). Conditions: purified delta FosB, at 25 µM, stronger effect = higher value, percent of positive-control signal above neutral wells.
UniProt P13346, sequence (P13346 whole entry, looked up): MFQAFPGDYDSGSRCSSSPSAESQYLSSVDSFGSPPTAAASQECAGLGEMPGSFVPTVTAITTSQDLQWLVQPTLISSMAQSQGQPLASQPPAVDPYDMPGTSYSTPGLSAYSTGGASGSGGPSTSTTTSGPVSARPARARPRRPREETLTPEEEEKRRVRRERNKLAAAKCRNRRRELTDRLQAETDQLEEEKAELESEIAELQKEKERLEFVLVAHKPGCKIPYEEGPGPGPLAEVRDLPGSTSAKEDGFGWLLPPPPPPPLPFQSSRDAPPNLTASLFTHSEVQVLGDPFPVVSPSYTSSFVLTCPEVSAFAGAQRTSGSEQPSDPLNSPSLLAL

| SMILES | activation |
| --- | --- |
| COc1ccccc1CCC(=O)NC1CCCN(c2ccc(C(F)(F)F)cn2)C1 (stereo not drawn) | inconclusive: 19.1% |
| Cc1nnc(SCC(=O)Nc2nsc(-c3ccc(Cl)cc3)n2)s1 | inconclusive: 19.4% |
| C/C(=N/NC(=O)C1CC1(c1ccccc1)c1ccccc1)c1cccs1 (stereo not drawn) | inactive: -7.3% |
| c1ccc(Nc2nc(-c3cccs3)cs2)nc1 | inactive: 6.61% |
| CS(=O)(=O)c1ccc2nc(NC(=O)Nc3ccc(Cl)c(Cl)c3)sc2c1 | inconclusive: 27.7% |
| O=C(COc1ccccc1Cl)Nc1nnc(S(=O)(=O)N2CCCCCC2)s1 | inconclusive: 20.2% |
| C=C(C)[C@@H]1CC=C(C(=O)O)CC1 | inactive: 2.14% |
| Cc1ccc(C)c(S(=O)(=O)N2CCN(CC(=O)Nc3ccc([N+](=O)[O-])cc3)CC2)c1 | inconclusive: 21.4% |
| C=CC(=O)Nc1ccc(CN2C(=O)N(c3c(Cl)c(OC)cc(OC)c3Cl)Cc3cnc(NCCCCN(CC)CC)nc32)cc1 | inconclusive: 24.1% |
| CCCCCc1cc(=O)oc2c(C(CCN3CCCCC3)c3ccc4c(c3)OCO4)c(OC)cc(OC)c12 (stereo not drawn) | inconclusive: 16.6% |
| COc1cccc(C(=O)Nc2nnc(-c3ccc(OC)cc3OC)s2)c1 | active: 38.6% |
| O=C(COc1ccc(-n2cnnn2)cc1)Nc1cc(Cl)cc(Cl)c1 | inconclusive: 17.8% |
| Cc1ccc(/C=N/N=C2/NC(=O)C(CC(=O)Nc3ccc(Cl)cc3)S2)o1 (stereo not drawn) | inconclusive: 23.8% |
| Cc1ccc(S(=O)(=O)N(CC(=O)N/N=C/c2cccc(Cl)c2)c2cccc3cccnc23)cc1 | inconclusive: 18.8% |
| Cc1cc(C)cc(NC(=O)COC(=O)c2cc(C)oc2C)c1 | inconclusive: 19.8% |
| Cc1nc2nc(SCC(=O)Nc3cccc(F)c3)[nH]c2cc1Br | inconclusive: 22.6% |
| CCOc1ccc(N(C)S(=O)(=O)c2ccc(C)c(C(=O)Nc3nnc(C4CC4)s3)c2)cc1 | inactive: -14% |
| COC(=O)c1ccc(C23CC4(C2)[C@H](CN(C)[C@@H]4c2ccccc2)C3c2ccccc2)cc1 (stereo partly drawn) | inconclusive: 18.8% |
| COc1ccc(C(=O)OCC(=O)c2ccc3c(c2)NC(=O)CO3)cc1OC | inconclusive: 18.3% |
| CCOc1ccc(C(=O)Nc2ccc(NC(=O)c3ccco3)c(Cl)c2)cc1Br | inconclusive: 28.8% |
| NS(=O)(=O)c1ccc(NC(=O)/C=C/c2ccc3c(c2)OCO3)cc1 | inconclusive: 17.4% |

| SMILES | activation |
| --- | --- |
| CCCOc1ccc(C(=O)Nc2ccc(S(=O)(=O)N3C[C@@H]4C[C@@H](C3)c3cccc(=O)n3C4)cc2)cc1 | inactive: 14.2% |
| Cc1nc2ccccc2n1Cc1ccccc1Br | inactive: 4.49% |
| CCOc1cccc(C2C(C(=O)c3ccc(C)o3)=C(O)C(=O)N2Cc2ccncc2)c1 (stereo not drawn) | inactive: 8.12% |
| Cc1cccn2c(=O)c3cc(C(=O)NCCN4CCOCC4)c(=N)n(CCc4ccccc4)c3nc12 | inconclusive: 17.4% |
| COC(=O)c1ccc(Oc2ccc(C(F)(F)F)cn2)cc1 | inactive: 4.4% |
| CC(=O)Nc1ccc(NC(=O)CN(c2ccc(C34CC5CC(CC(C5)C3)C4)cc2)S(C)(=O)=O)cc1 | inconclusive: 17.4% |
| Nc1c(C(=O)NCc2ccccc2)c2nc3ccccc3nc2n1CCCN1CCOCC1 | inconclusive: 16.7% |
| COc1ccccc1NC(=O)Cc1csc(NC(=S)Nc2ccccc2)n1 | inconclusive: 16.2% |
| Cc1ccc(-c2nnn(CC(=O)N(CCCO)C(C(=O)NC3CCCC3)c3ccc(Cl)cc3)n2)o1 (stereo not drawn) | inconclusive: 16.2% |
| CCN(CC)CCOC(=O)c1ccc(N/C=C(/C#N)c2nc(-c3ccc(OC)cc3)cs2)cc1 | inconclusive: 28.1% |
| Cc1cccc(NC(=O)c2cc3cc([N+](=O)[O-])ccc3s2)n1 | inactive: 8.11% |
| O=C(N/N=C/c1ccccn1)c1cc(-c2ccc(Cl)s2)[nH]n1 | inconclusive: 18.8% |
| CCOc1ccc(-n2c(SCC(=O)Nc3ccc(CC)cc3)nc3n[nH]c(C)c3c2=N)cc1 | inconclusive: 19.3% |
| CCOC(=O)C1=C(C)N(C[C@@H]2CC[C@@H](Cc3ccc(-c4ccccc4)cc3)O2)C(=O)NC1c1ccc(-c2ccccc2)cc1 (stereo partly drawn) | inconclusive: 19.4% |
| CCCCSCCCNC(=O)C1CCC(CNS(=O)(=O)c2ccc(NC(C)=O)cc2)CC1 (stereo not drawn) | inconclusive: 17.1% |
| COC(=O)c1[nH]c2ccc(Cl)cc2c1NC(=O)c1ccccc1[N+](=O)[O-] | inconclusive: 16.5% |
| COc1cccc2c(=O)n(CC(=O)Nc3cccc(F)c3)ccc12 | inconclusive: 16% |
| NC(=S)N/N=C/c1c(O)c(Br)cc2oc3c(c12)CCCC3 | inconclusive: 17.6% |
| COc1cc2ccccc2cc1C(=O)N(CCN(C)C)c1nc2c(OC)ccc(OC)c2s1 | inconclusive: 17.1% |
| CN1\C(=C/C=C/C=C/C=[N+](C)C)C(C)(C)c2ccccc21 | inconclusive: 17.7% |
| Cc1cc(C)c2c(N)c3ccccc3nc2n1 | active: 30.8% |

| SMILES | activation |
| --- | --- |
| O=C(COC(=O)c1cn(-c2ccccc2)nc1-c1ccc(F)cc1)Nc1ncc(Cl)cc1Cl | inconclusive: 30.1% |
| O=C1N/C(=N\N=C\c2ccco2)SC1Cc1ccccc1[N+](=O)[O-] (stereo not drawn) | inconclusive: 17.5% |
| CN(C)CCCN1c2ccc3ccccc3c2Sc2cccc(Cl)c21 | inconclusive: 17.1% |
| COc1ccc(-c2nnc(SCC(=O)c3cc(C)n(Cc4cccs4)c3C)o2)cc1 | active: 42.8% |
| CC(=O)/C(=N\Nc1cccc(Cl)c1)Sc1nnc(-c2ccccc2)n1-c1ccccc1 | inconclusive: 27.3% |
| CCOc1ccc(CNC(=O)Cn2nc(C)c3c(C)n(-c4ccc(C)cc4)nc3c2=O)cc1 | active: 59% |
| COc1ccc(N2CCc3c(C)nc4c(OC)cccc4c32)cc1 | inconclusive: 17.5% |
| O=C1NC(=O)/C(=C\c2ccccc2Oc2ccc(F)c(F)c2)S1 | inconclusive: 19.1% |
| COc1ccc(Cc2nn3c(-c4cc(OC)c(OC)c(OC)c4)nnc3s2)cc1 | inconclusive: 16.4% |
| O=C(Cn1c(=S)[nH]c2ccccc2c1=O)N1CCN(c2ccccc2)CC1 | inconclusive: 19.1% |
| CCOC(=O)c1sc(NC(=O)c2ccc3nc[nH]c3c2)nc1C | inconclusive: 44% |
| Cc1cc(N2CCN(C)CC2)nc2ccc(NC(=S)N3CCN(c4ccc(Cl)cc4)CC3)cc12 | inactive: 9.55% |
| CN1CCN(CC(=O)Nc2cc(N(C)C)nc3ccccc23)CC1 | inconclusive: 17.4% |
| COc1ccccc1Nc1nnc(SCC(=O)NC(=O)Nc2ccc3c(c2)OCCO3)s1 | inconclusive: 68% |
| CCOC(=O)N1CCC(N2C(=O)c3ccc(C(=O)NCc4ccc(F)cc4)cc3C2=O)CC1 | inconclusive: 17.4% |
| CCS(=O)(=O)N1CCN(c2ccc([N+](=O)[O-])c(NCc3cccnc3)c2)CC1 | inconclusive: 16.1% |
| O=C(CCCN1C(=O)/C(=C/c2ccccc2Cl)SC1=S)NNC(=O)c1ccc(Cl)cc1Cl | inconclusive: 26.6% |
| COc1ccc(/C=N/NC(=O)c2ccc(NC(=O)c3ccccc3Br)cc2)cc1 | inconclusive: 23.5% |
| COc1ccccc1NC(=O)COc1cccnc1[N+](=O)[O-] | inactive: -4.22% |
| COc1cc(OC)cc(C(=O)N[C@H](C(=O)Nc2cc(C)cc(C)c2)C(C)C)c1 | inconclusive: 20.4% |
| COc1ccc(Nc2nc(-c3cccs3)cs2)c(OC)c1 | inactive: -3.83% |

| SMILES | activation |
| --- | --- |
| COc1ccc(Cl)cc1C(=O)NNC(=O)c1cccs1 | inconclusive: 16.8% |
| O=C(CCC(=O)Nc1nnc(C2CCCCC2)s1)Nc1ccccc1 | inconclusive: 17.9% |
| O=C(C1CCCN(S(=O)(=O)c2ccc(Br)cc2)C1)N1CCOCC1 (stereo not drawn) | inactive: -6.69% |
| N#Cc1nc(-c2ccc(Cl)cc2)oc1NCc1cccc2c1OCO2 | inconclusive: 18.1% |
| Cn1c(-c2sc3cc(C(F)(F)F)cnc3c2-c2cccs2)n[nH]c1=S | inconclusive: 17.1% |
| CCCSc1nnc(NC(=O)Nc2ccc(C)cc2)s1 | inconclusive: 16.1% |
| CCc1ccc(NC(=O)CSc2nc3ccsc3c(=O)n2CCCCCC(=O)O)cc1 | inactive: 2.13% |
| COc1ccc(-c2nc(C(=O)NCCCN3CCOCC3)cc3c2[nH]c2ccccc23)cc1OC | inconclusive: 17.1% |
| CN(C)S(=O)(=O)c1ccc(S(=O)(=O)N2CCCC(C(=O)NC3CC3)C2)cc1 (stereo not drawn) | inconclusive: 17.4% |
| Cc1cc(CSc2ccccc2)ccc1NC(=O)c1cccc([N+](=O)[O-])c1 | inconclusive: 22.6% |
| CCC1CCc2sc(C(=O)NCC(c3ccc(OC)cc3)N3CCCC3)cc2C1 (stereo not drawn) | inconclusive: 18.6% |
| Cc1ccc2nc(-c3cc(-c4ccccc4)no3)cn2c1 | inactive: 3.55% |
| COc1ccc(/C=N\NC(=O)c2ccccc2Br)cc1COc1ccc(F)cc1 | inconclusive: 18.2% |
| O=c1[nH]c2ccccc2cc1CN(c1ccccc1)S(=O)(=O)c1ccccc1 | inconclusive: 16.7% |
| COc1ccccc1C(CNC(=O)CNC(=O)c1cccc(Cl)c1)N1CCCC1 (stereo not drawn) | inactive: 2.58% |
| Cc1cc(NC(=O)c2ccc3c(c2)C(=O)N(Cc2ccccc2)C3=O)no1 | inconclusive: 21.9% |
| O=C(N=C1SC2CS(=O)(=O)CC2N1c1ccc(F)cc1)C1CC1 (stereo not drawn) | inactive: -1.16% |
| O=C(Nc1nc2c(Cl)ccc(Cl)c2s1)C1CC1 | active: 27.8% |
| C=CCN(c1ccccc1)S(=O)(=O)c1cccc(C(=O)NCC(c2ccc(OC)cc2)N2CCCCC2)c1 (stereo not drawn) | inconclusive: 16.3% |
| Cc1cccc2c1-c1sc(C(=O)Nc3nccs3)cc1CO2 | inconclusive: 18.5% |

Reference: PubChem BioAssay AID493131 (Broad Institute, 2011)
